Our source for the binding signal values is PMC12136788.

B1: chr12:101746137:101746238:-|3pUTR|ENSG00000111670|msi1|FALSE|unique (ssRNA)
RNA: GGGAGUUCUACAGUCCGACGAUCGGUUAGUAAAUUAUUGCAGGCCACCUGUGUCUUUGUCAUACAUUCUUCUUGCUGUUGUUUAGUUUGUUUUUUUUCAAACAACCCUCUAAAAAUGUAAAAACCAUGUUUAGCUUGCAGCUGCAACAGAGGAUUGAGCAUCA
B2: chr10:72011937:72012038:+|3pUTR|ENSG00000122863|msi1|FALSE|unique (ssRNA)
RNA: GGGAGUUCUACAGUCCGACGAUCCAUACACCGCAGGUGGUCACCGAGUUAUUUUCCAAAAGCUGAGGAACAUAAAGCAAAUUUAGGCUUUUGUCCUUCUGCAAUACAUGCACUUGAAAAUAAACAGAAAAGAGAUGUUUAAUACAACAGAGGAUUGAGCAUCA
B3: chr4:57023444:57023561:+|CDS|ENSG00000047315|unk|total|mutant (ssRNA)
RNA: GGGAGUUCUACAGUCCGACGAUCGAAUUGGAGAGCACCAACCGACGCUAUACCAAGAGAGACUGCCGCACUUUUCUCAGAACCCGCGAGACGGGCAUUGUGGAUCAGGUUAUGGUAACUCUCAAUCAGGAAGGAUAUAAAUUUCAACAGAGGAUUGAGCAUCA
B4: chr19:41261474:41261596:+|3pUTR|ENSG00000167601|msi1|total|mutant (ssRNA)
RNA: GGGAGUUCUACAGUCCGACGAUCUCUAAAGGUCCACAGGUCCCGACUAUCCGGUGCAAUUUCAAGGUUCUAACCCUAUACUGCCGUAUUCUUUGGGGUGCCCCUCUCCUUCUCCGCUAUCAUUGCUUCCUCCUCCCCAACUGUCAACAGAGGAUUGAGCAUCA
B5: chr3:49657245:49657349:+|CDS|ENSG00000164061|unk|total|mutant (ssRNA)
RNA: GGGAGUUCUACAGUCCGACGAUCCAGCCGCCGUGGCAUCAAGAAGCGGCACUCCAUGCCACGCCUGCGGGAUGCCUGUGAGCCCGAGUCUGGGACUGAGCCCUGUGUGGUCAGGAGGAUUGCCGACAGCAGCGUGCAGACAGACAACAGAGGAUUGAGCAUCA
B6: ENSG00000198589:be:win_2251|CDS|ENSG00000198589|bound_else_gene|NA|bound_elsewhere_windowed (ssRNA)
RNA: GGGAGUUCUACAGUCCGACGAUCGCCCCAAAGAGGAAAGCAGAAGUCAUGCUUGGACAUGGAUUGUUUUCAUUGCUAGCUGAAAGGCUCAUGCUUCAGACAAAUUUAAUCACAAUGACCACAUAUAAUGUGCUGUUUGAGAUUCAACAGAGGAUUGAGCAUCA
B7: ENSG00000107863:be:win_3001|CDS|ENSG00000107863|bound_else_gene|NA|bound_elsewhere_windowed (ssRNA)
RNA: GGGAGUUCUACAGUCCGACGAUCAGUGAGACCAAGAGGAAAAAUGUGUUUCGACUCACCACGUCCGACUGUGAAUGCCUGUUUCAGGCUGAAGACAGAGAUGAUAUGCUAGCUUGGAUCAAGACGAUCCAGGAGAGCAGCAACCAACAGAGGAUUGAGCAUCA
B8: chr22:36281740:36281783:-|3pUTR|ENSG00000100345|msi1_unk|FALSE|overlapping (ssRNA)
RNA: GGGAGUUCUACAGUCCGACGAUCUCUGACAGCCAGAGCGUUAGAGGGGCCAGCGGCCCUCCCAGGCGAUCUUGUGUCUACUCUAGGACUGGGCCCGAGGGUGGUUUACCUGCACCGUUGACUCAGUAUAGUUUAAAAAUCUGCCAACAGAGGAUUGAGCAUCA
B9: chr3:154276180:154276282:-|CDS|ENSG00000174953|unk|FALSE|unique (ssRNA)
RNA: GGGAGUUCUACAGUCCGACGAUCUCAUCCUGUAGACUGGAAUGACACUAAAUCCAGAGACUGUGCAGUACUGUCAGCUAUUAUAGACUUGAUCAAAACACAGGAAAAGGCAACUCCCAGGAACUUUCCGCCACGAUUCCAGGACAACAGAGGAUUGAGCAUCA
B10: chr7:99705035:99705499:-|three_prime_utr|ENSG00000160870|control|control|control (ssRNA)
RNA: GGGAGUUCUACAGUCCGACGAUCGUUUGCUCUUUAAGAAAGCUGUGCCCCAGAACACCAGAGACCUCAAAUUACUUUACAAAUAGAACCCUGAAAUGAAGACGGGCUUCAUCCAAUGUGCUGCAUAAAUAAUCAGGGAUUCUGCAACAGAGGAUUGAGCAUCA
B11: ENSG00000107863:be:win_6151|3pUTR|ENSG00000107863|bound_else_gene|NA|bound_elsewhere_windowed (ssRNA)
RNA: GGGAGUUCUACAGUCCGACGAUCAGAAAAUCGCUGGCAUCAGUGUGCAGCAAAUUUGUUCUUUUGGUUUCAUCACUAACAAAAGUGCCUCAUCAUAAAAAUACAGUUGGUUUUUAGGGUGCCAUAUUGUUAAAAUUAGAUAACCAACAGAGGAUUGAGCAUCA
B12: ENSG00000120693:stop:overlap|stop_codon|ENSG00000120693|stop_codon|NA|stop_codon (ssRNA)
RNA: GGGAGUUCUACAGUCCGACGAUCGCAUUAACCCUUACCACUACCGCCGGGUGGAGACUCCAGGUGACUUUGCGGUGAUCCUCUAGGAGCUUUUGGAAUAUUCCAGUUAUCCCGCAGUGUUUGAAAUUCAAGAUGGAAAGACUACAACAGAGGAUUGAGCAUCA
B13: chr12:76025442:76025543:-|3pUTR|ENSG00000139289|msi1|FALSE|unique (ssRNA)
RNA: GGGAGUUCUACAGUCCGACGAUCAUACACCAUCACAUUCAUGAAUUUUUUAGCAUGGUCAGAACUUGUGUAAAUAUGUCUCUUAGAUGAUUUUGGGGAGAUGUGAUUUAUUUUUCAUAUUUUCAAAAUGCAUUUCAUUUCAAACAACAGAGGAUUGAGCAUCA
B14: chr1:25360731:25360844:+|3pUTR|ENSG00000183726|unk|FALSE|unique (ssRNA)
RNA: GGGAGUUCUACAGUCCGACGAUCUUUUUUACUGCUCACUCCCAACCUUUUGUAAUGCCAUUUUCUAAACUUAUUUCUGAGUGUAGUCUCAGCUUAAAGUUGUGUAAUACUAAAAUCACGAGAACACCUAAACAACAACCAAAACAACAGAGGAUUGAGCAUCA

The list shows a part of the results.

This assay addresses MSI1 full-length (mouse, UniProt Q61474 1-362). Description: nsRBNS (natural sequence RNA bind-n-seq); RBNS binding buffer (assumed for nsRBNS): 25 mM Tris pH 7.5, 150 mM KCl, 3 mM MgCl2, 0.01% Triton X-100, 500 ug/ml BSA, 20 U/ml SUPERase-In, 4 C; UNK is unkempt and MSI1 is Musashi-1; names of the RNAs are library labels; protein concentration not given here; high values mean tight binding.
Sequence of UniProt Q61474 (Q61474 whole entry): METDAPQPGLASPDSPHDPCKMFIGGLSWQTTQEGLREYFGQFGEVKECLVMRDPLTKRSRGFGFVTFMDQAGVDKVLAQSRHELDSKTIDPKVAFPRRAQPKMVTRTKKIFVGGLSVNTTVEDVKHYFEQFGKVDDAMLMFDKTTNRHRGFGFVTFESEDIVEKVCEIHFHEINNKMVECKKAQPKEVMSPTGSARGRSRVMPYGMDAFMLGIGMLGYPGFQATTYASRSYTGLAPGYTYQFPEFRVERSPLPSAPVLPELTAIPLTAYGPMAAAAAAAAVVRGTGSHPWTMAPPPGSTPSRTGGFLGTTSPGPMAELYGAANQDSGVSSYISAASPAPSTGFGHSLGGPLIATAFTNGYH
Molecule B1 showed a binding signal of 0.915 enrichment R.
For the molecule B2, the binding signal was determined as 0.511 enrichment R.
Next, B3: 0.382 enrichment R; B4: 0.848 enrichment R.
B5: the binding signal worked out at 0.43 enrichment R.
Turning to B6, the binding signal was found to be 0.274 enrichment R.
The molecule B7 returned a binding signal of 0.356 enrichment R.
In turn, B8 had a binding signal of 0.774 enrichment R.
Molecule B9 gave a binding signal of 0.741 enrichment R.
With B10 the figure was 0.529 enrichment R; with B11, 0.809 enrichment R; with B12, 3.03 enrichment R.
B13: the binding signal was 0.954 enrichment R.
B14 gave a binding signal of 1.01 enrichment R.
